B1: PhoQ; a variant is named by its letters at X, in order, P23837 (parent)
chain: MKKLLRLFFPLSLRVRFLLATAAVVLVLSLAYGMVALIGYSVSFDKTTFRLLRGESNLFYTLAKWENNKLHVELPENIDKQSPTMTLIYDENGQLLWAQRDVPWLMKMIQPDWLKSNGFHEIEADVNDTSLLLSGDHSIQQQLQEVREDDDDAEMTHSVAVNVYPATSRMPKLTIVVVDTIPVELKSSYMVWSWFIYVLSANLLLVIPLLWVAAWWSLRPIEALAKEVRELEEHNRELLNPATTRELTSLVRNLNRLLKSERERYDKYRTTLTDLTHSLKTPLXXLQXXLRSLRSEKMSVSDAEPVMLEQISRISQQIGYYLHRASMRGGTLLSRELHPVAPLLDNLTSALNKVYQRKGVNISLDISPEISFVGEQNDFVEVMGNVLDNACKYCLEFVEISARQTDEHLYIVVEDDGPGIPLSKREVIFDRGQRVDTLRPGQGVGLAVAREITEQYEGKIVAGESMLGGARMEVIFGRQHSAPKDE

The other results are listed elsewhere or left out.

Variants of B1 are the subject of this experiment. Put plainly: enrichment ratio after two sorts for PhoP signalling (ratio (wild type AVST 3.29)); higher = more functional. The settings on record: with PhoP (E. coli).
For the variant TDKP, the enrichment ratio was at most 0.25.

On to PGPQ, for which the enrichment ratio was at most 0.25.

Turning to IHAS, the enrichment ratio is at most 0.25.

In the case of ELSF, the enrichment ratio is at most 0.25.

On to MLTP, for which the enrichment ratio is at most 0.25.

In the case of LTQK, the enrichment ratio is at most 0.25.

On to KISH, for which the enrichment ratio is at most 0.25.

For VAPD, the enrichment ratio was at most 0.25.

Turning to FGRR, the enrichment ratio was at most 0.25.

Take GDES: the enrichment ratio was at most 0.25.

Consider FANT, for which the enrichment ratio is at most 0.25.

In the case of GARC, the enrichment ratio was at most 0.25.

Regarding MYLQ, the enrichment ratio is at most 0.25.

As to DMNV, the enrichment ratio was at most 0.25.

Take TDMH: the enrichment ratio is 18.2.

For the variant TPSI, the enrichment ratio is at most 0.25.

For GCML, the enrichment ratio worked out at 3.33.

For VQTP, the enrichment ratio is at most 0.25.

In the case of VYFC, the enrichment ratio was at most 0.25.

Consider MHKV, for which the enrichment ratio is at most 0.25.

For IRNV, the enrichment ratio is at most 0.25.

Consider SKVP, for which the enrichment ratio was at most 0.25.

DWHF: the enrichment ratio was at most 0.25.

For the variant MMGN, the enrichment ratio was at most 0.25.

Regarding GCRM, the enrichment ratio was at most 0.25.

On to GSAN, for which the enrichment ratio is at most 0.25.

Regarding LSCN, the enrichment ratio was at most 0.25.

As to DLYA, the enrichment ratio is at most 0.25.

On to TKIL, for which the enrichment ratio worked out at 8.86.

For LSLT, the enrichment ratio was at most 0.25.

LWHC: the enrichment ratio was at most 0.25.

As for DRVN, the enrichment ratio is at most 0.25.

As for EHDC, the enrichment ratio is at most 0.25.

Turning to FHKW, the enrichment ratio was at most 0.25.

For LIQG, the enrichment ratio is at most 0.25.

As for PYPI, the enrichment ratio is 0.499.

With IGIN, the enrichment ratio was at most 0.25.

For SAHL, the enrichment ratio came out at 1.54.

Turning to KRPD, the enrichment ratio was at most 0.25.

As for TGFC, the enrichment ratio came out at 0.254.

Take VPQR: the enrichment ratio is at most 0.25.

Consider IQDN, for which the enrichment ratio is at most 0.25.

Take VMTS: the enrichment ratio is at most 0.25.

Regarding FWLD, the enrichment ratio is at most 0.25.

For EITL, the enrichment ratio is at most 0.25.

As to HQAQ, the enrichment ratio was at most 0.25.

Regarding VMWP, the enrichment ratio was at most 0.25.

As to SPCL, the enrichment ratio was at most 0.25.

For HNFD, the enrichment ratio was at most 0.25.

Regarding WPLL, the enrichment ratio was at most 0.25.

For RHIL, the enrichment ratio was at most 0.25.

As to GNMP, the enrichment ratio is at most 0.25.

For NTGV, the enrichment ratio was at most 0.25.

For YLRA, the enrichment ratio is at most 0.25.

For the variant IYAT, the enrichment ratio is at most 0.25.

Regarding YSHP, the enrichment ratio was at most 0.25.

For KWSF, the enrichment ratio is at most 0.25.

As to PTML, the enrichment ratio was at most 0.25.

Regarding WVIK, the enrichment ratio was at most 0.25.

Take PWGD: the enrichment ratio is at most 0.25.

Turning to DMLE, the enrichment ratio was at most 0.25.

In the case of DPVT, the enrichment ratio was at most 0.25.

Turning to SHNV, the enrichment ratio was determined as 1.91.

For DVEG, the enrichment ratio was at most 0.25.

Consider AHVK, for which the enrichment ratio is at most 0.25.

For the variant GFRH, the enrichment ratio is at most 0.25.

In the case of PVHQ, the enrichment ratio is at most 0.25.

Consider FCKN, for which the enrichment ratio was at most 0.25.

Turning to QIAV, the enrichment ratio is at most 0.25.

Consider DNHK, for which the enrichment ratio is at most 0.25.

Consider WHKV, for which the enrichment ratio is at most 0.25.

VEHH: the enrichment ratio was at most 0.25.

With QDLM, the enrichment ratio is at most 0.25.

As to TGIG, the enrichment ratio is 4.21.

With DSPT, the enrichment ratio is at most 0.25.

Regarding SDRC, the enrichment ratio is at most 0.25.

Regarding QYTQ, the enrichment ratio is at most 0.25.

Regarding HQHE, the enrichment ratio is at most 0.25.

With HRRR, the enrichment ratio is at most 0.25.

Turning to NLIM, the enrichment ratio was at most 0.25.

As for GFSR, the enrichment ratio is at most 0.25.

Turning to RNGQ, the enrichment ratio was at most 0.25.

Turning to LHAA, the enrichment ratio is at most 0.25.

In the case of GKTG, the enrichment ratio was at most 0.25.

On to APFW, for which the enrichment ratio is at most 0.25.

TVLG: the enrichment ratio was determined as 2.52.

On to DEIW, for which the enrichment ratio was at most 0.25.

With HFWT, the enrichment ratio was at most 0.25.

As to NDYP, the enrichment ratio is at most 0.25.

With SRSN, the enrichment ratio was at most 0.25.

For SMIL, the enrichment ratio was at most 0.25.

For the variant YRPV, the enrichment ratio was at most 0.25.

As to LWGT, the enrichment ratio was at most 0.25.

QSFV: the enrichment ratio came to 7.11.

With YMTS, the enrichment ratio is at most 0.25.

For IQKK, the enrichment ratio was at most 0.25.

With SIYC, the enrichment ratio was 0.522.

As to SIIV, the enrichment ratio came out at 0.966.

With IIIP, the enrichment ratio is at most 0.25.

For the variant KHDQ, the enrichment ratio is at most 0.25.

As for TEDR, the enrichment ratio is at most 0.25.

Turning to HDEH, the enrichment ratio was at most 0.25.

Turning to FMGF, the enrichment ratio is at most 0.25.

With FCYK, the enrichment ratio was at most 0.25.

For NMHF, the enrichment ratio was at most 0.25.

Turning to QRRY, the enrichment ratio was at most 0.25.

Take TLKP: the enrichment ratio is at most 0.25.

As for RYWV, the enrichment ratio was at most 0.25.

Take TPPE: the enrichment ratio is at most 0.25.

For the variant RFYN, the enrichment ratio was at most 0.25.

As for HMFK, the enrichment ratio was at most 0.25.

As for KECQ, the enrichment ratio is at most 0.25.

On to PPGM, for which the enrichment ratio is at most 0.25.

Take LKLC: the enrichment ratio is at most 0.25.

IGAP: the enrichment ratio was at most 0.25.

Consider RMRK, for which the enrichment ratio was at most 0.25.

For the variant RQLW, the enrichment ratio was at most 0.25.

Take REDH: the enrichment ratio was at most 0.25.

Regarding GGDY, the enrichment ratio is at most 0.25.

Take ERFP: the enrichment ratio is at most 0.25.

As to WYRH, the enrichment ratio is at most 0.25.

Take NAKL: the enrichment ratio is at most 0.25.

Consider LVTM, for which the enrichment ratio was at most 0.25.

As to SERD, the enrichment ratio was at most 0.25.

With DSIQ, the enrichment ratio is at most 0.25.

With VCMA, the enrichment ratio was at most 0.25.

Turning to PCSH, the enrichment ratio is at most 0.25.

With ICQI, the enrichment ratio was at most 0.25.

Consider YKSN, for which the enrichment ratio is at most 0.25.

QVGF: the enrichment ratio amounted to 5.91.

As for LNNI, the enrichment ratio was at most 0.25.

As for DPYS, the enrichment ratio is at most 0.25.

As to YFGL, the enrichment ratio is at most 0.25.

As for PTTP, the enrichment ratio is at most 0.25.

Regarding TRQM, the enrichment ratio was at most 0.25.

Regarding YNPY, the enrichment ratio is at most 0.25.

Turning to NLDR, the enrichment ratio is at most 0.25.

With GNIK, the enrichment ratio is at most 0.25.

As to ICIG, the enrichment ratio was at most 0.25.

For KLRQ, the enrichment ratio is at most 0.25.

As to FLEY, the enrichment ratio is at most 0.25.

For VIFR, the enrichment ratio was at most 0.25.

Consider LPAY, for which the enrichment ratio is at most 0.25.

For DTQP, the enrichment ratio is at most 0.25.

With VPGM, the enrichment ratio was at most 0.25.

With VFTR, the enrichment ratio is at most 0.25.

Consider TRWM, for which the enrichment ratio was at most 0.25.

In the case of AYEG, the enrichment ratio was at most 0.25.

For the variant YQLL, the enrichment ratio came out at 3.83.

Consider WIPA, for which the enrichment ratio was at most 0.25.

For TDYR, the enrichment ratio is at most 0.25.

For the variant PDSY, the enrichment ratio was at most 0.25.

With RERG, the enrichment ratio is at most 0.25.
